In all, about 330,000 compounds went through this assay and about 4,200 (1.3%) were called active. Inconclusive means that the source gave no clear call. Such entries were picked first, then a sample of the others. Calls come from the whole dose curve; as a rule, active = well fitted activation curve with a large enough effect; inconclusive = small, poorly fitted or top-dose-only effect; inactive = no such curve, though single readings can be large or run the other way. A potency beside an inconclusive call is a rough fit, not a confirmed value.
experiment: qHTS screen for small molecules that induce genotoxicity in human embryonic kidney (HEK293T) cells expressing luciferase-tagged ELG1; details: HEK293T ELG1-luciferase reporter, luminescence, 16 h; series mostly up to 46 µM; note: nearly all actives have a fitted effect of over 60% in size
Summary of the method: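 Genotoxic stress is detected as increased luminescence from luciferase-tagged ELG1 in HEK293T cells, measured with ONE-Glo after a 16 hr treatment at 37 °C.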
Potency is the fitted concentration of half-maximal effect; tags give direction and shape of the fitted curve.

Row | SMILES | Potency
1 | O=c1c(Cl)c(N2CCOCC2)cnn1-c1nc2ccccc2[nH]1 | inconclusive: 3.66 µM [activator, full curve]
2 | O=C(NCC1CCCO1)c1cccc(Oc2ccccc2)c1 (stereo unspecified) | inconclusive: 23.1 µM [activator, partial curve]
3 | NC(=O)C1=C[C@H](C2CCCCC2)C[C@H](OCc2ccc(CO)cc2)O1 | active: 2.91 µM
4 | O=C(Nc1ccc(F)cc1F)c1cccc(C(=O)Nc2ccc(F)cc2F)n1 | active: 18.3 µM
5 | Cc1cc(C)n2nc(C(=O)Nc3ccc4c(c3)OCO4)nc2n1 | inconclusive: 11.2 µM [activator, partial curve, poor fit]
6 | COc1ccc2[nH]c(-c3ccc(C)cc3)cc(=O)c2c1 | active: 2.91 µM
7 | O=C(CSc1nnc([C@@H]2CCCN2)o1)c1ccc(Cl)cc1 | inconclusive: 29.1 µM [activator, single point]
8 | Cc1ccn2c(Nc3ccc4c(c3)OCO4)c(-c3ccccn3)nc2c1 | inconclusive: 29.1 µM [activator, single point]
9 | CCn1c(SCC(=O)N2CCCC2)nnc1-c1ccc(N)cc1 | inactive
10 | Fc1ccc2nc3[nH]c4ccccc4c3nc2c1 | inconclusive: 14.6 µM [activator, partial curve]
11 | C/C(=N\NC(=O)c1ccc(Cl)c(Cl)c1)c1ccccn1 | inconclusive: 6.51 µM [activator, single point]
12 | Cc1cccc(N2CCN(C(=O)CCCCCn3c(=S)[nH]c4ccc(N5CCOCC5)cc4c3=O)CC2)c1C | inactive
13 | COc1ccccc1N(C)S(=O)(=O)c1ccc(C(=O)Nc2cccc(Br)c2)cc1 | inactive
14 | Oc1ccc(Br)cc1-c1cc(-c2ccccc2Cl)[nH]n1 | inactive
15 | CCn1c(=S)[nH]c2cc(S(=O)(=O)N3CCOCC3)ccc21 | inconclusive: 18.3 µM [activator, partial curve, poor fit]
16 | OCCN1CCN(CC/C=C2/c3ccccc3Sc3ccc(Cl)cc32)CC1 | inconclusive: 29.1 µM [activator, single point]
17 | CCCc1nn(C)c(C(=O)Nc2ccc3ccccc3c2)c1Cl | inconclusive: 18.4 µM [activator, single point]
18 | Cc1cc(C(=O)N/N=C/c2ccc(C)o2)c2ccccc2n1 | inconclusive: 13 µM [activator, partial curve, poor fit]
19 | O=C(COC(=O)c1n[nH]c2ccccc12)Nc1ccccc1 | inconclusive: 14.6 µM [activator, partial curve]
20 | Cc1ccc(NC(=O)N/C=C/c2ccco2)cc1 | inconclusive: 2.91 µM [activator, partial curve, poor fit]
21 | CCn1nnc(NC(=O)c2ccc(-c3ccc(Cl)cc3)o2)n1 | inconclusive: 16.4 µM [activator, partial curve]
22 | CC1CCCCC1NC(=O)CCn1ccc2cc(S(=O)(=O)N3CCCC3)ccc21 (stereo unspecified) | inactive
23 | CCOC(=O)N/N=C\c1cccc(OC)c1 | inconclusive: 16.4 µM [activator, partial curve, poor fit]

Row | SMILES | Potency
24 | COc1ccc(N2CCN(CC(=O)Nc3nc(C)cs3)CC2)cc1 | inactive
25 | O=C(COc1ccc(S(=O)(=O)N2CCOCC2)cc1)N1CCN(c2ccccc2)CC1 | inactive
26 | O=C(/C=C/c1ccccc1[N+](=O)[O-])Nc1ccccc1 | inconclusive: 1.46 µM [activator, full curve]
27 | CCCn1nnc2sc3c(c2c1=O)CCC(C)C3 (stereo unspecified) | active: 11.6 µM
28 | Cc1ccc(C)c(NC(=O)c2cc(-c3cc(C)c(C)cc3O)n[nH]2)c1 | inconclusive: 20.6 µM [activator, single point]
29 | C/C(COc1ccccc1)=N\NC(=O)c1nnn(-c2nonc2N)c1CSc1ccccc1 | inactive
30 | Cc1cc(CN2CCCCC2C(=O)Nc2ccc(Oc3cccnc3)cc2)oc1C (stereo unspecified) | inactive
31 | Cc1cc(/C(N)=N/OC(=O)Nc2ccc(Cl)cc2)no1 | inconclusive: 20.6 µM [activator, single point]
32 | Cc1cc(C)c2nc(-n3nc(C)cc3N)cc(C)c2c1 | inconclusive: 20.6 µM [activator, single point]
33 | Cc1ccsc1C(=O)OCC(=O)N1CCc2ccccc2C1 | inconclusive: 23.1 µM [activator, partial curve, poor fit]
34 | COc1ccc2nc(SCC(=O)/C(C#N)=C(\C)N)[nH]c2c1 | inconclusive: 2.59 µM [activator, full curve, poor fit]
35 | COC(=O)c1ccc(-c2nc3ccc(C)cc3o2)cc1 | inconclusive: 1.46 µM [activator, partial curve]
36 | COc1cc(NC2=CC(=O)CC(C)(C)C2)cc(OC)c1OC | inconclusive: 25.9 µM [activator, partial curve, poor fit]
37 | c1ccc(COc2ccc(OCCCCN3CCCC3)cc2)cc1 | inconclusive: 10.3 µM [activator, partial curve]
38 | COc1ccc(NC(=O)c2ccccc2)cc1 | inconclusive: 9.2 µM [activator, partial curve]
39 | C=CCNc1nc2c(c(=O)[nH]c(=O)n2C)n1CCCCC | inconclusive: 11.6 µM [activator, partial curve, poor fit]
40 | CCn1cc(Cl)c(C(=O)Nc2nccs2)n1 | inactive
41 | CSc1ccccc1NC(=O)CN(C)C(=O)Cn1c(=O)oc2ccccc21 | inactive
42 | CCN1CCN(c2ccc(NC(=O)c3cc(OC)c(OC)c(OC)c3)cc2)CC1 | inconclusive: 18.3 µM [activator, single point]
43 | Cc1cc(Nc2ccccc2F)n2ncnc2n1 | inconclusive: 16.4 µM [activator, partial curve, poor fit]
44 | Cc1cc(C)c2c(-n3cccc3)c(C(=O)O)sc2n1 | inconclusive: 1.46 µM [activator, partial curve]
45 | Cn1c(=N)n(CC(=O)c2cccs2)c2ccccc21 | inconclusive: 4.61 µM [activator, full curve]
46 | CC(=O)Cc1nsc(Nc2ccc(Cl)cc2)n1 | inconclusive: 14.6 µM [activator, partial curve, poor fit]
